PubChem BioAssay AID1508623 (National Center for Advancing Translational Sciences (NCATS), 2021)
Out of some 48,000 compounds screened, about 450 (0.94%) were called active. Another 19% or so got no clear call; they are omitted. Calls come from the whole dose curve; as a rule, active = well fitted inhibition curve with a large enough effect; inconclusive = small, poorly fitted or top-dose-only effect; inactive = no such curve, though single readings can be large or run the other way. The list shows a part of the results.

experiment: Primary qHTS for Identification of Small Molecule Inhibitors of Huntingtin Promoter Activity; settings: HEK293 HTT promoter firefly luciferase reporter (activity 0% = vehicle and -100% = no light), 24 h; series mostly up to 57.5 µM; activity change, negative = inhibition: at the top concentration; note: nearly all actives have a fitted effect of over 50% in size
Method in brief: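 Quantitative HTS used concentration series of up to 57.5 uM final on HEK293 luciferase reporter cells, 24 h at 37 degrees C. Readout was Dual-Glo firefly luminescence.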

| Compound | activity change, negative = inhibition |
| --- | --- |
| NN=C(N)N | inactive: 6.51% |
| CCCCCc1nc2ccccc2c(=O)n1-c1ccc(C)cc1 | inactive: -9.27% |
| CCCC(C)(COC(N)=O)COC(=O)NC(C)C (stereo not drawn) | inactive |
| CCCC1CCCCN1 (stereo not drawn) | inactive: -4.6% |
| Cc1ccc(NC(=O)CN2C(=O)CN=C(c3ccccc3)c3ccccc32)cc1 | inactive: -12.8% |
| CCN(Cc1ccc(Cl)nc1)/C(=C/[N+](=O)[O-])NC | inactive: -1.33% |
| CN1CC[C@]23c4c5ccc(O)c4O[C@H]2[C@@H](O)CC[C@H]3[C@H]1C5 | inactive: -2.87% [at 116 µM] |
| COc1cccc(-n2c(/C=C/c3ccccc3O)nc3ccccc3c2=O)c1 | inactive: -21.2% |
| CC(O)CN1CCN(CC(=O)[O-])CCN(CC(=O)[O-])CCN(CC(=O)[O-])CC1.[Gd+3] (stereo not drawn) | inactive: 10.3% |
| CCCCC/C=C\C/C=C\C/C=C\C/C=C\CCCC(=O)NCC(=O)O | inactive: 15% |
| O=C(N[C@H]1N=C(c2ccccc2F)c2cccc3c2N(CC3)C1=O)c1cc2ccccc2[nH]1 | inactive: -11.8% |
| CN1C2CCC(C)(C)C1CC(OC(=O)C(O)(c1cccs1)c1cccs1)C2 (stereo not drawn) | inactive: 1.86% |
| C=C1C[C@@H]2[C@H](CC[C@]3(C)C(=O)CC[C@@H]23)[C@@]2(C)C=CC(=O)C=C12 | inactive: -0.346% |
| CNC(C)Cc1ccccc1OC (stereo not drawn) | inactive: -0.989% |
| COc1ccccc1N1CCNCC1 | inactive: -4.76% |
| CCN(CC)CCSc1nc2ccccc2c(=O)n1-c1ccc(Cl)cc1 | inactive: -4.56% |
| CC(=O)[C@H]1CC[C@H]2[C@@H]3CC[C@H]4C[C@H](O)CC[C@]4(C)[C@H]3C(=O)C[C@]12C | inactive: -4.96% |
| Cc1cccc(Cn2cccc(C(=O)Nc3ccc4c(c3)OCCO4)c2=O)c1 | inactive: 0% |
| CCC(=O)O[C@@H]1C=C2CCC3C(CCC4(C)C3CC[C@@H]4OC(=O)CC)C2CC1 (stereo partly drawn) | inactive: 14.3% |
| Cc1ccc(Cn2cccc(C(=O)Nc3ccc4c(c3)OCO4)c2=O)cc1 | inactive: -13.1% |
| CNC(=O)N1N=C(c2ccc(N)cc2)c2cc3c(cc2CC1C)OCO3 (stereo not drawn) | inactive: 63.8% |
| C[C@H]1CNCCc2ccc(Cl)cc21 | inactive: -4.55% |
| CC1=NN=C(c2ccc(N)cc2)c2cc3c(cc2C1)OCO3 | inactive: -0.733% |

| Compound | activity change, negative = inhibition |
| --- | --- |
| Cn1c(=O)n(C)c2cc(CNCCc3ccc(F)cc3)ccc21 | inactive: -5.77% |
| CCOC(=O)C(c1c(O)c2ccccc2oc1=O)c1c(O)c2ccccc2oc1=O | inactive: -8.59% |
| Cc1ccc2nc(NC(=O)c3cccn(Cc4ccc(Cl)cc4)c3=O)sc2c1 | inactive: -16.1% |
| CCOP(=S)(OCC)Oc1ccc2c(C)c(Cl)c(=O)oc2c1 | inactive: 13.7% |
| COC[C@@H](NC(C)=O)C(=O)NCc1ccccc1 | inactive: -4.67% |
| CCOc1ccc(NC(=O)Cn2cc(C(=O)c3ccccc3)c3ccccc32)cc1 | inactive: -9.98% |
| CC(C)C12CN3CC(C(C)C)(CN(C1)C3c1ccccn1)C2=O (stereo not drawn) | inactive: 69.8% |
| CCOC(=O)NC(O)C(Cl)(Cl)Cl (stereo not drawn) | inactive: -2.62% |
| CC(=O)O[C@@]12CO[C@H]1C[C@H](O)[C@@]1(C)C(=O)[C@H](O)C3=C(C)[C@@H](O)C[C@@](O)([C@@H](OC(=O)c4ccccc4)[C@@H]21)C3(C)C | inactive: -1.79% |
| COc1ccc(C(c2ccc(OC)cc2)C(Cl)(Cl)Cl)cc1 | inactive: -9.64% [at 116 µM] |
| Cc1ccc(-n2c(/C=C\c3ccc(F)cc3)nc3ccccc3c2=O)cc1Cl | inactive: -5.82% |
| COc1ccc(NC(=O)c2sc3nc4c(cc3c2N)N2CCC4CC2)cc1OC | inactive: -30.4% |
| Oc1ccccc1-c1ccccc1 | inactive: -0.134% |
| Cc1cccc(CN2CC=C(c3noc(CCC(=O)Nc4ccc(C)c(F)c4)n3)CC2)c1 | inactive: -16.8% |
| O=C(NC(O)C(Cl)(Cl)Cl)NC(O)C(Cl)(Cl)Cl (stereo not drawn) | inactive: 2.28% |
| CC(=O)NC1CCSC1=O (stereo not drawn) | inactive: 13.4% |
| CCN(CC)CCN1C(=O)CN=C(c2ccccc2F)c2cc(Cl)ccc21 | inactive: 2.8% |
| O=C(COc1ccccc1F)N1CCN(Cc2cc(=O)n3nc(-c4ccccc4Cl)sc3n2)CC1 | inactive: -17.6% |
| Cc1ccc2c(c1)C(Cc1nc3ccccc3c(=O)n1-c1ccc(Br)cc1)C(=O)N2 (stereo not drawn) | inactive: -27.7% |
| CN1C(=O)CCS(=O)(=O)C1c1ccc(Cl)cc1 (stereo not drawn) | inactive |
| Cc1cccc(Cc2cnc[nH]2)c1C | inactive: 4.04% |
| O=C(COc1cc(Cl)ccc1Cl)Nc1ccc(Cl)cc1C(=O)c1ccccc1 | inactive: -2.62% |
| c1ccc2c(c1)sc1ccccc12 | inactive: -1.15% |

| Compound | activity change, negative = inhibition |
| --- | --- |
| NC(=O)CS(=O)C(c1ccccc1)c1ccccc1 (stereo not drawn) | inactive: -0.694% |
| O=C(Nc1ccc(F)c([N+](=O)[O-])c1)c1cccn(Cc2ccccc2)c1=O | inactive: -12.9% |
| Cc1cccc(OCC(=O)N2CCN(CCc3ccccn3)CC2)c1 | inactive: -15.7% |
| C[C@]12CC[C@H]3[C@@H](CCC4=CC(=O)CC[C@@H]43)[C@@H]1CC[C@@H]2OC(=O)CCc1ccco1 | inactive: 0.73% |
| COP(=S)(OC)Oc1ccc(Sc2ccc(OP(=S)(OC)OC)cc2)cc1 | inactive: -0.603% |
| CCCCCCC(=O)CCCCCC/C=C/C[C@@H](O)[C@H](O)[C@@](N)(CO)C(=O)O | inactive: 0.163% [at 25.2 µM] |
| COc1ccc2c(c1OC)C(=O)O[C@H]2[C@@H]1c2cc3c(cc2CCN1C)OCO3 | inactive: 3.69% |
| CC1(C)CC/C(=C/c2ccc(Cl)cc2)C1(O)Cn1cncn1 (stereo not drawn) | inactive: -18.2% [at 116 µM] |
| CCOc1ccc(CN(CCc2ccc3c(c2)OCO3)Cc2ccc(C)cc2)cc1 | inactive: -21.9% |
| CC(C)Cc1nc2cccnc2n1C1CCNCC1 | inactive: -16.3% |
| CCN(CC)C(C)C(=O)c1ccccc1 (stereo not drawn) | inactive: 9.53% |
| COc1cc(CC#N)cc(OC)c1OC | inactive: 14.7% |
| CCC(C)C(C)(COC(N)=O)COC(N)=O (stereo not drawn) | inactive: 4.33% |
| O=C(N[C@@H]1N=C(c2ccccc2F)c2cccc3c2N(CC3)C1=O)c1cc2ccccc2[nH]1 | inactive: 6.43% |
| Cc1ccc(NC(=O)Cn2cc(C(=O)c3ccccc3)c3ccccc32)c(C)c1 | inactive: -29.8% |
| CC1(C)C(C=C(Cl)Cl)C1C(=O)OC(C#N)c1cccc(Oc2ccccc2)c1 (stereo not drawn) | inactive: -2.58% |
| Oc1cc(Cl)ccc1Oc1ccc(Cl)cc1Cl | inactive: -28% |
| CCCCC12CN3CC(C)(CN(C1)C3c1ccccn1)C2=O (stereo not drawn) | inactive: -9.12% |
| CC=C(C)C(=O)N[C@@H](c1ccccc1)[C@@H](O)C(=O)O[C@H]1C[C@@]2(O)[C@@H](OC(=O)c3ccccc3)[C@@H]3[C@]4(OC(C)=O)CO[C@@H]4C[C@H](O)[C@@]3(C)C(=O)[C@H](OC(C)=O)C(=C1C)C2(C)C | inactive: -15.2% |
| O=C(Nc1ccc2c(c1)OCO2)c1cccn(Cc2cccc([N+](=O)[O-])c2)c1=O | inactive: -6.37% |
| O=S1(=O)N(Cc2ccccc2Cl)CCCN1Cc1ccccc1Cl | inactive: -22.5% |
| C1CN2CCC1CC2 | inactive: -0.298% |
